Laboratory results published in the supplement of paper PMC8728848.
Some of the results follow.

Tests used:
Assay in all cases: glycan array binding signal (z-score within array); higher = stronger binding
Details in all cases: glycan notation: IUPAC condensed, linker removed
Fuc(a1-2)Gal = target: Fuc(a1-2)Gal
Procedure, shortened: (§1)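 Arrays were curated from the Consortium for Functional Glycomics database, 3228 in total, and kept only where the protein sequence was available. Binding is expressed as a within-array Z-score. This score was averaged across arrays of the same protein sequence at different concentrations or buffers and across linkers, and negative values can be read as non-binding.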

Fuc(a1-2)Gal(b1-3)GalNAc = target: Fuc(a1-2)Gal(b1-3)GalNAc
Procedure, shortened: as §1

[1] = target: Fuc(a1-2)Gal(b1-3)GalNAc(b1-3)Gal
Procedure, shortened: as §1

[2] = target: Fuc(a1-2)Gal(b1-3)GalNAc(b1-3)Gal(a1-4)Gal(b1-4)Glc
Procedure, shortened: as §1

[3] = target: Fuc(a1-2)Gal(b1-3)GalNAc(b1-4)[Neu5Ac(a2-3)]Gal(b1-4)Glc
Procedure, shortened: as §1

Fuc(a1-2)Gal(b1-3)GlcNAc = target: Fuc(a1-2)Gal(b1-3)GlcNAc
Procedure, shortened: as §1

[4] = target: Fuc(a1-2)Gal(b1-3)[Fuc(a1-4)]GlcNAc
Procedure, shortened: as §1

Fuc(a1-2)Gal(b1-4)Glc = target: Fuc(a1-2)Gal(b1-4)Glc
Procedure, shortened: as §1

Fuc(a1-2)Gal(b1-4)GlcNAc = target: Fuc(a1-2)Gal(b1-4)GlcNAc
Procedure, shortened: as §1

[5] = target: Fuc(a1-2)Gal(b1-4)GlcNAc(b1-3)Gal(b1-4)GlcNAc
Procedure, shortened: as §1

[6] = target: Fuc(a1-2)Gal(b1-4)GlcNAc(b1-3)Gal(b1-4)GlcNAc(b1-3)Gal(b1-4)GlcNAc
Procedure, shortened: as §1

[7] = target: Fuc(a1-2)Gal(b1-4)[Fuc(a1-3)]GlcNAc
Procedure, shortened: as §1

Fuc(a1-2)GlcNAc = target: Fuc(a1-2)GlcNAc
Procedure, shortened: as §1

Fuc(a1-2)[Gal(a1-3)]Gal = target: Fuc(a1-2)[Gal(a1-3)]Gal
Procedure, shortened: as §1

[8] = target: Fuc(a1-2)[Gal(a1-3)]Gal(b1-4)GlcNAc
Procedure, shortened: as §1

[9] = target: Fuc(a1-2)[Gal(a1-4)]Gal(b1-4)GlcNAc
Procedure, shortened: as §1

[10] = target: Fuc(a1-2)[GalNAc(a1-3)]Gal
Procedure, shortened: as §1

[11] = target: Fuc(a1-2)[GalNAc(a1-3)]Gal(b1-4)GlcNAc
Procedure, shortened: as §1

[12] = target: Fuc(a1-2)[GalNAc(a1-4)]Gal(b1-4)GlcNAc
Procedure, shortened: as §1

[13] = target: Fuc(a1-2)[GalNAc(b1-3)]Gal
Procedure, shortened: as §1

Fuc(a1-3)GlcNAc = target: Fuc(a1-3)GlcNAc
Procedure, shortened: as §1

[14] = target: Fuc(a1-3)[Gal(b1-4)]GlcNAc
Procedure, shortened: as §1

[15] = target: Fuc(a1-3)[Gal(b1-4)]GlcNAc(b1-3)Gal(b1-4)[Fuc(a1-3)]GlcNAc
Procedure, shortened: as §1

[16] = target: Fuc(a1-3)[Gal(b1-4)]GlcNAc(b1-3)Gal(b1-4)[Fuc(a1-3)]GlcNAc(b1-3)Gal(b1-4)[Fuc(a1-3)]GlcNAc
Procedure, shortened: as §1

[17] = target: Fuc(a1-3)[Gal3S(b1-4)]GlcNAc
Procedure, shortened: as §1

Fuc(b1-3)GlcNAc = target: Fuc(b1-3)GlcNAc
Procedure, shortened: as §1

Gal(a1-2)Gal = target: Gal(a1-2)Gal
Procedure, shortened: as §1

Gal(a1-3)Gal = target: Gal(a1-3)Gal
Procedure, shortened: as §1

Gal(a1-3)Gal(b1-4)Glc = target: Gal(a1-3)Gal(b1-4)Glc
Procedure, shortened: as §1

Gal(a1-3)Gal(b1-4)GlcNAc = target: Gal(a1-3)Gal(b1-4)GlcNAc
Procedure, shortened: as §1

[18] = target: Gal(a1-3)Gal(b1-4)[Fuc(a1-3)]GlcNAc
Procedure, shortened: as §1

Gal(a1-3)GalNAc = target: Gal(a1-3)GalNAc
Procedure, shortened: as §1

[19] = target: Gal(a1-3)[Gal(a1-4)]Gal(b1-4)GlcNAc
Procedure, shortened: as §1

Gal(a1-4)Gal(b1-4)Glc = target: Gal(a1-4)Gal(b1-4)Glc
Procedure, shortened: as §1

Gal(a1-4)Gal(b1-4)GlcNAc = target: Gal(a1-4)Gal(b1-4)GlcNAc
Procedure, shortened: as §1

Gal(a1-4)GlcNAc = target: Gal(a1-4)GlcNAc
Procedure, shortened: as §1

Gal(a1-6)Glc = target: Gal(a1-6)Glc
Procedure, shortened: as §1

Gal(b1-2)Gal = target: Gal(b1-2)Gal
Procedure, shortened: as §1

Gal(b1-3)Gal = target: Gal(b1-3)Gal
Procedure, shortened: as §1

Gal(b1-3)GalNAc = target: Gal(b1-3)GalNAc
Procedure, shortened: as §1

[20] = target: Gal(b1-3)GalNAc(b1-4)Gal(b1-4)Glc
Procedure, shortened: as §1

[21] = target: Gal(b1-3)GalNAc(b1-4)[Neu5Ac(a2-3)]Gal(b1-4)Glc
Procedure, shortened: as §1

Gal(b1-3)GlcNAc = target: Gal(b1-3)GlcNAc
Procedure, shortened: as §1

[22] = target: Gal(b1-3)GlcNAc(b1-3)Gal(b1-4)Glc
Procedure, shortened: as §1

[23] = target: Gal(b1-3)[Fuc(a1-4)]GlcNAc
Procedure, shortened: as §1

[24] = target: Gal(b1-3)[GlcNAc(b1-6)]GalNAc
Procedure, shortened: as §1

[25] = target: Gal(b1-3)[Neu5Ac(a2-6)]GalNAc
Procedure, shortened: as §1

[26] = target: Gal(b1-3)[Neu5Ac(a2-6)]GlcNAc(b1-4)Gal(b1-4)Glc
Procedure, shortened: as §1

[27] = target: Gal(b1-3)[Neu5Ac(b2-6)]GalNAc
Procedure, shortened: as §1

[28] = target: Gal(b1-4)GalNAc(a1-3)[Fuc(a1-2)]Gal(b1-4)GlcNAc
Procedure, shortened: as §1

Gal(b1-4)Glc = target: Gal(b1-4)Glc
Procedure, shortened: as §1

Gal(b1-4)Glc6S = target: Gal(b1-4)Glc6S
Procedure, shortened: as §1

Gal(b1-4)GlcNAc = target: Gal(b1-4)GlcNAc
Procedure, shortened: as §1

[29] = target: Gal(b1-4)GlcNAc(b1-3)Gal(b1-4)Glc
Procedure, shortened: as §1

[30] = target: Gal(b1-4)GlcNAc(b1-3)Gal(b1-4)GlcNAc
Procedure, shortened: as §1

[31] = target: Gal(b1-4)GlcNAc(b1-3)Gal(b1-4)GlcNAc(b1-3)Gal(b1-4)GlcNAc
Procedure, shortened: as §1

[32] = target: Gal(b1-4)GlcNAc(b1-3)Gal(b1-4)[Fuc(a1-3)]GlcNAc(b1-3)Gal(b1-4)[Fuc(a1-3)]GlcNAc
Procedure, shortened: as §1

[33] = target: Gal(b1-4)GlcNAc(b1-3)GalNAc
Procedure, shortened: as §1

[34] = target: Gal(b1-4)GlcNAc(b1-3)[Gal(b1-4)GlcNAc(b1-6)]GalNAc
Procedure, shortened: as §1

[35] = target: Gal(b1-4)GlcNAc(b1-6)GalNAc
Procedure, shortened: as §1

B1: RegIIIbeta (Mus musculus), P35230 (protein)
chain: MLPPTACSVMSWMLLSCLMLLSQVQGEDSLKNIPSARISCPKGSQAYGSYCYALFQIPQTWFDAELACQKRPGGHLVSVLNSAEASFLSSMVKRTGNSYQYTWIGLHDPTLGAEPNGGGWEWSNNDVMNYFNWERNPSTALDRAFCGSLSRASGFLKWRDMTCEVKLPYVCKFTG
Q: Which results are given for B1?
A: glycan array binding signal (z-score) (Fuc(a1-2)Gal): -0.114; glycan array binding signal (z-score) (Fuc(a1-2)Gal(b1-3)GalNAc): -0.079; glycan array binding signal (z-score) [1]: -0.108; glycan array binding signal (z-score) [2]: -0.111; glycan array binding signal (z-score) [3]: -0.043; glycan array binding signal (z-score) (Fuc(a1-2)Gal(b1-3)GlcNAc): -0.104; glycan array binding signal (z-score) [4]: -0.098; glycan array binding signal (z-score) (Fuc(a1-2)Gal(b1-4)Glc): -0.114; glycan array binding signal (z-score) (Fuc(a1-2)Gal(b1-4)GlcNAc): -0.116; glycan array binding signal (z-score) [5]: -0.122; glycan array binding signal (z-score) [6]: 0.15; glycan array binding signal (z-score) [7]: -0.097; glycan array binding signal (z-score) (Fuc(a1-2)GlcNAc): -0.111; glycan array binding signal (z-score) (Fuc(a1-2)[Gal(a1-3)]Gal): -0.087; glycan array binding signal (z-score) [8]: -0.098; glycan array binding signal (z-score) [9]: -0.125; glycan array binding signal (z-score) [10]: -0.094; glycan array binding signal (z-score) [11]: -0.107; glycan array binding signal (z-score) [12]: -0.04; glycan array binding signal (z-score) [13]: -0.111; glycan array binding signal (z-score) (Fuc(a1-3)GlcNAc): -0.114; glycan array binding signal (z-score) [14]: 0.028; glycan array binding signal (z-score) [15]: -0.102; glycan array binding signal (z-score) [16]: -0.122; glycan array binding signal (z-score) [17]: -0.12; glycan array binding signal (z-score) (Fuc(b1-3)GlcNAc): -0.024; glycan array binding signal (z-score) (Gal(a1-2)Gal): -0.111; glycan array binding signal (z-score) (Gal(a1-3)Gal): -0.097; glycan array binding signal (z-score) (Gal(a1-3)Gal(b1-4)Glc): -0.117; glycan array binding signal (z-score) (Gal(a1-3)Gal(b1-4)GlcNAc): -0.085; glycan array binding signal (z-score) [18]: -0.098; glycan array binding signal (z-score) (Gal(a1-3)GalNAc): -0.118; glycan array binding signal (z-score) [19]: 0.048; glycan array binding signal (z-score) (Gal(a1-4)Gal(b1-4)Glc): -0.11; glycan array binding signal (z-score) (Gal(a1-4)Gal(b1-4)GlcNAc): -0.081; glycan array binding signal (z-score) (Gal(a1-4)GlcNAc): -0.112; glycan array binding signal (z-score) (Gal(a1-6)Glc): -0.06; glycan array binding signal (z-score) (Gal(b1-2)Gal): -0.101; glycan array binding signal (z-score) (Gal(b1-3)Gal): -0.105; glycan array binding signal (z-score) (Gal(b1-3)GalNAc): -0.104; glycan array binding signal (z-score) [20]: -0.104; glycan array binding signal (z-score) [21]: -0.059; glycan array binding signal (z-score) (Gal(b1-3)GlcNAc): -0.097; glycan array binding signal (z-score) [22]: -0.099; glycan array binding signal (z-score) [23]: -0.111; glycan array binding signal (z-score) [24]: -0.122; glycan array binding signal (z-score) [25]: -0.11; glycan array binding signal (z-score) [26]: -0.105; glycan array binding signal (z-score) [27]: 0.019; glycan array binding signal (z-score) [28]: 0.028; glycan array binding signal (z-score) (Gal(b1-4)Glc): -0.098; glycan array binding signal (z-score) (Gal(b1-4)Glc6S): -0.119; glycan array binding signal (z-score) (Gal(b1-4)GlcNAc): -0.085; glycan array binding signal (z-score) [29]: -0.103; glycan array binding signal (z-score) [30]: -0.12; glycan array binding signal (z-score) [31]: -0.121; glycan array binding signal (z-score) [32]: 0.026; glycan array binding signal (z-score) [33]: -0.119; glycan array binding signal (z-score) [34]: -0.091; glycan array binding signal (z-score) [35]: -0.121
